Test results published in patent publication US11123332B2 (priority 2018, dated 2021).

System: patients with major depressive disorder who have clinically significant suicidal ideation
Test: prospective randomized clinical trial of gaboxadol compared with ketamine in patients at risk of suicide
[1] = gaboxadol group compared with ketamine group

Compound | day 1 POMS depression subscale scores [1] | day 1 POMS total mood disturbance score [1] | decrease in suicidal ideation at 230 minutes after the infusion [1] | average SSI score at day 1 (gaboxadol group compared with ketamine group, 24 hours after administration) | proportion of responders on the SSI at day 1 (gaboxadol group vs ketamine group) | Cohen's d for the difference in mean group change (SSI) (gaboxadol group vs ketamine group, baseline to day 1) | non-remitters (day 1 SSI) in the group (ketamine group, remission = day 1 SSI >50% below baseline and less than 4)
Oc1noc2c1CCNC2 [gaboxadol, 4,5,6,7-tetrahydroisoxazolo (5,4-c) pyridin-3-ol] | greater improvement | greater improvement | greater | lower | significantly higher | greater than medium effect size | –
CNC1(c2ccccc2Cl)CCCCC1=O (stereo not shown) [ketamine] | – | – | – | – | – | – | 35 of 40
